Experimental data taken from the RNAGym collection of RNA variant scans (doi:10.7554/elife.90254).
Read counts are not given, so values of variants with three or more changes are uncertain.

B1: LINE1-mini (parent)
chain: GGCAGAGCUCAACACAGCGUGGCAAAGUGGCUGUGGCUAGACUGCC

Variants of: B1
Assay: self-cleavage, relative activity (ratio to wild type); higher = more cleavage; in vitro, sequencing; the parent is a self-cleaving ribozyme
In the case of C18A G27C G29A, the self-cleavage is reported as 0.13. In the case of A14C G35U U43A, the self-cleavage is reported as 0.02. In the case of G2C G5A C13A, the self-cleavage is reported as 0.07. Work on G2A A39C G44A yielded a self-cleavage of 0.11. Variant A11G G21U C37G has a self-cleavage of 0. In the case of C8A U9G A16U G36U, the self-cleavage is reported as 0.04. G5C G21U G35A showed a self-cleavage of 0.02. For G1U G27A G33C, the self-cleavage was 0. For C3G G21C C42U, the self-cleavage was 0.12. Work on A4U C31A U32A yielded a self-cleavage of 0.03. With G2U A11C U43A C45U the self-cleavage was 0.01. For A11U A25C G33C, the self-cleavage was 0. C13G G22U G29A A39U G40A showed a self-cleavage of 0.02. In the case of C3U A12U U20C G30A, the self-cleavage is reported as 0.03. C10U U20A A39G G40U showed a self-cleavage of 0.02. With C18A A26G U28A the self-cleavage was 0.02. C8U G22A A41C showed a self-cleavage of 0.07. For A6U C13G G22A G27U A41G, the self-cleavage was 0.41. A11U A24U U34G showed a self-cleavage of 0.02. For G2A G35C C42A, the self-cleavage was 0.06. With C8U G29C G44A the self-cleavage was 0.12. With A25G G44U C46A the self-cleavage was 0.05. Variant G2A U20C A26U U28C has a self-cleavage of 0.26. G21A C37U A39G C45U gave a self-cleavage of 0.03. With C3U C18A G35C the self-cleavage was 0.04. A14U G21U G36A gave a self-cleavage of 0.14. A4U C10A G29A G30U A41C showed a self-cleavage of 0.03. C10A G19A C23U G27C G33U gave a self-cleavage of 0.01. Work on G2A U9G G33C yielded a self-cleavage of 0.04. In the case of G5U G33A C37A A41U, the self-cleavage is reported as 0.09. Variant G5C A25G U28C G29C G30U has a self-cleavage of 0.14. Variant A26C G36U U38A A39G C46U has a self-cleavage of 0.02. In the case of A12U U20C G36A, the self-cleavage is reported as 0.02. With G2U A4G G21C G44U C46U the self-cleavage was 0.06. C3A G33C G40U gave a self-cleavage of 0.06. In the case of C3A G7A G36C, the self-cleavage is reported as 0.36. Work on C18A G35A U38G A41G C42U yielded a self-cleavage of 0.02. Variant C13G G19C G29A has a self-cleavage of 0.26. A4C C10A G21A A25C gave a self-cleavage of 0.03. C18A C23U U28C G44U gave a self-cleavage of 0.02. For G1U C8A C13U G30A, the self-cleavage was 0.27. Work on G5U C18G A24U C46U yielded a self-cleavage of 0.04. G7A A12G A26C showed a self-cleavage of 0.02. With G22U A26C G27C C31A C42G the self-cleavage was 0.05. With G2U C8G C10A A25C C46A the self-cleavage was 0. Work on A6C A25C G40C U43A yielded a self-cleavage of 0. A6G C13A C15G C23A A25C C31U A41G gave a self-cleavage of 0.02. C23A A25U A41U G44A gave a self-cleavage of 0.05. C10G A11C C15U A24C U38G showed a self-cleavage of 0.02. Work on G5C A11C G19C G22U U28C yielded a self-cleavage of 0. For A4U G5U G22C C31A U32C C45A C46A, the self-cleavage was 0.12. Variant G2A G5U G22C G30U G35C A39G has a self-cleavage of 0.09. Variant G5U U9G A12C C42G U43C has a self-cleavage of 0.01. C3A A11G G36U showed a self-cleavage of 0.02. With G1U U20A A24U G33U G36C the self-cleavage was 0. Work on G5C A14U G36U yielded a self-cleavage of 0.05. A6U G7A A11C A16C U32A G35A C46G showed a self-cleavage of 0.01. For A6G G30C G35U A41C, the self-cleavage was 0.05. In the case of A26G G36U C37A, the self-cleavage is reported as 0.1. Work on A11C U20C G35U yielded a self-cleavage of 0. With A6U C8G A14U C37U the self-cleavage was 0.16. G1U G2U C10A A16C A25C gave a self-cleavage of 0. Work on G5C A16U C23G A41C yielded a self-cleavage of 0.02. For A4C G7C A12U U28G G40C G44A, the self-cleavage was 0.39. For G17A G36A A39G G40A, the self-cleavage was 0.01. In the case of C13U G29U C37U, the self-cleavage is reported as 0.23. G1A C10A A11G A14C G30A G44A showed a self-cleavage of 0.05. In the case of C10A C18A G27C U34G, the self-cleavage is reported as 0.01. Work on G5U G35C C37G yielded a self-cleavage of 0.04. G1C C10U C18G A25C gave a self-cleavage of 0.01. Work on G7U A26G G33C A41U yielded a self-cleavage of 0.13. With G2C C10U C15A G19C G27A the self-cleavage was 0.01. With G17A G30C C42G the self-cleavage was 0.02. Work on C31U U32A C37A A39G C46A yielded a self-cleavage of 0.03. For A6G G21U U28A, the self-cleavage was 0.01. C3U U20G G22U G36U showed a self-cleavage of 0.14. G19U G30C U32G gave a self-cleavage of 0.17. Variant U9A G30C G40A has a self-cleavage of 0.15. With C8G G35U C37G the self-cleavage was 0.02. Work on C8G C18G G27A C37G A41G yielded a self-cleavage of 0.01. With G19U G21U A41C U43C C45G C46A the self-cleavage was 0.04. With C3G U38C C42U the self-cleavage was 0.03. With G35A A39G A41C C45A the self-cleavage was 0.04. G21U A26U C45G showed a self-cleavage of 0.07. In the case of A4U G22C G35U, the self-cleavage is reported as 0.05. Variant C23G U34G G40C has a self-cleavage of 0.07. Work on C13U G17C C37U yielded a self-cleavage of 0.07. With G17A U20A U28C G40C the self-cleavage was 0.03. Work on G2A A14C G19C G29C C31G yielded a self-cleavage of 0.09. For C13U A14U G30A G40U, the self-cleavage was 0.39. A25C G27A A41G C45U showed a self-cleavage of 0.09. In the case of G5C U9C A11G, the self-cleavage is reported as 0.01. In the case of G2A U9G C10U G40A A41C C42U U43G, the self-cleavage is reported as 0.02. G5C G7U A11C G27U G30U gave a self-cleavage of 0.02. For A12U G30U C46U, the self-cleavage was 0.52. Work on U9A C18G U32G G33U yielded a self-cleavage of 0.03. Work on G35A C37A C45G yielded a self-cleavage of 0.19. C3U C13A G21A G44U showed a self-cleavage of 0.17. In the case of C31G U32G C46A, the self-cleavage is reported as 0. A26G U38A A41U showed a self-cleavage of 0.27. In the case of G1A C13G G44C, the self-cleavage is reported as 0.06. With A6U A25U U38C the self-cleavage was 0.18. For C23G A25G G29A, the self-cleavage was 0.49. With C3G G29U G30U C37G the self-cleavage was 0.05. G2A C3U A16U A25U U34C showed a self-cleavage of 0.36. C8U G27C C31A G33U C45U showed a self-cleavage of 0.33. A11C C18G G22U G35C G36C A41U showed a self-cleavage of 0. With G17U G22C U28G U43A the self-cleavage was 0. In the case of G7C C15G G27U, the self-cleavage is reported as 0.02. In the case of G7C G33A C45A, the self-cleavage is reported as 0.15. G2U A16C A26C C31U showed a self-cleavage of 0.05. Work on G5A A24C A41C yielded a self-cleavage of 0.04. Variant C8U C13U G22U U34C has a self-cleavage of 0.11. In the case of A12C C13U G29A, the self-cleavage is reported as 0.03. Variant A4C A14G C15G G35A G36A has a self-cleavage of 0.01. Work on C10G A11C A24C A26G C45G C46A yielded a self-cleavage of 0.01. G30A U32A C42G U43C showed a self-cleavage of 0.01. For C3A A11G C15A U34G G35A, the self-cleavage was 0.03. C10U C23G G36C G44U gave a self-cleavage of 0.02. Variant A4U C42U G44C has a self-cleavage of 0.11. Variant C18G G19U C23A A26G C37A A39G has a self-cleavage of 0.01. G2C G7A G27C showed a self-cleavage of 0.13. With U32C G36C C42A the self-cleavage was 0.04. Work on A4G G5A G27A yielded a self-cleavage of 0.05. With G5U A12U U28A the self-cleavage was 0.01. A24U A25C G29U showed a self-cleavage of 1.06. C3U A14U G19U G22U G27U gave a self-cleavage of 0.37. In the case of A6U G29A G35A G40A, the self-cleavage is reported as 0.1. Variant C8U A41U C45A has a self-cleavage of 0.35. C3A C10U C13G A26C C37G showed a self-cleavage of 0.19. Work on G7C C15A G21A yielded a self-cleavage of 0.17. G22A C31G U32A showed a self-cleavage of 0.04. For G2A G5U C45G, the self-cleavage was 0.4. Work on U9C A12U C18U U38G yielded a self-cleavage of 0.02. C3G G22C C45G gave a self-cleavage of 0.1. G7U C8U G40C gave a self-cleavage of 0.36. Work on G17U G21A A24C G27C C45A yielded a self-cleavage of 0.16. C3A A4C A6C G7C G22A C42A gave a self-cleavage of 0.05. With A6G C13U U32G the self-cleavage was 0.04. U28G C31U G36C showed a self-cleavage of 0.01. With G36U G40U C42G the self-cleavage was 0.37. With C15A C31U G35U G36U A39U C42G the self-cleavage was 0.02. G1C G29C C31U showed a self-cleavage of 0.18. Work on G1C G2A C13A C46U yielded a self-cleavage of 0.05. Variant G2C G27A G44U has a self-cleavage of 0.14. G2C U9G A11U G33C A39G C42G gave a self-cleavage of 0. Work on U28G U38A G44C yielded a self-cleavage of 0.18. Work on C18G C37G G44U yielded a self-cleavage of 0.09. Work on A11G G21C G35C yielded a self-cleavage of 0.02. C13A G22U G36U gave a self-cleavage of 0.16. A4C U20G C23A gave a self-cleavage of 0.05. In the case of G19A G21U C23A G29A G36C, the self-cleavage is reported as 0.15. A16C C37U A41C showed a self-cleavage of 0.05. Variant G7C A11C A26C has a self-cleavage of 0.02. G1U G17C U38G gave a self-cleavage of 0.01. C3G C18G U34C C45G gave a self-cleavage of 0.08. Work on C13A C15G G40A yielded a self-cleavage of 0.02. In the case of A12G C13U A14U, the self-cleavage is reported as 0.03. Work on G21U G36A C42U yielded a self-cleavage of 0.06. U32A U34C C45G C46U showed a self-cleavage of 0.04. Work on G2U C15A C37A yielded a self-cleavage of 0.08. For G7A G27U C31U G33C, the self-cleavage was 0.18. In the case of C8A C10G C13U C18U G21A C31U G35U, the self-cleavage is reported as 0.01. In the case of G5C C10A U28C C42U, the self-cleavage is reported as 0.02. For C3U A11G A16G G17U G22C U34G, the self-cleavage was 0.01. In the case of G17A C23U C31G G36U, the self-cleavage is reported as 0.03. Work on A6C A12U U28C yielded a self-cleavage of 0.13.
